Test results reported in PubChem BioAssay (NCATS).
This list was built around the results that the source calls inconclusive (neither active nor inactive); the mix of calls is not that of the screen. For some assays here: A potency beside an inconclusive call is a rough fit, not a confirmed value. Calls of active or inactive are those of the source. Unless noted, calls come from the whole dose curve; as a rule, active = well fitted curve in the direction sought with a large enough effect; inconclusive = small, poorly fitted or top-dose-only effect, or another doubt; inactive = no such curve, though single readings can be large; an effect the other way counts as inactive or inconclusive.

Assays:
[1] = Cell Viability - Renal Proximal Tubule (AID 545); details: renal proximal tubule cells viability, primary cells of rat origin; at 91.7 µM (top of the series);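 note: cells exposed to compound for 40 hours; 0% = DMSO only and -100% = 100 µM tamoxifen; nearly all actives have a fitted effect of over 40% in size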
Method in brief: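 Rat kidney proximal tubule cells, freshly isolated; 1000 cells/well, 5 hr settle, compound 40 hr 37 °C. CellTiter-Glo 20 min RT, luminescence read. AC50 by standard Hill fit.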

[2] = target: Vitamin D3 receptor (Homo sapiens) (UniProt P11473); assay: qHTS assay for small molecule antagonists of vitamin D receptor signaling (AID 588541; calls by dose curve;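 note: receptor activated by calcitriol during compound treatment; % is set by controls: 0 for no effect and ±100 for the full control effect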); details: HEK293T VDR-UAS-bla, beta-lactamase ratio, antagonist mode; activity change, negative = inhibition: at 76.7 µM (top of the series)
[3] = target: Thyroid hormone receptor beta (Homo sapiens) (UniProt P10828); assay: qHTS assay for small molecule antagonists of thyroid hormone receptor beta signaling (AID 588547; active = well fitted inhibition curve with a large enough effect in the signal ratio, with a control signal flat, not every such curve was filed as active; inconclusive = small, poorly fitted or top-dose-only effect, or effect the other way, or a change in a side signal; the % refers to the signal ratio;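 note: cells stimulated with 0.4 nM T3 agonist during compound exposure; % is set by controls: 0 for no effect and ±100 for the full control effect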); details: TR-UAS-bla HEK293, beta-lactamase ratio, antagonist mode, 18 h
Method in brief: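 Inhibition of T3-driven (0.4nM final) beta-lactamase reporter activity was measured over 0.59 nM to 92 uM compound after 18 h at 37 C. The cells were GripTite HEK293 TR-UAS-bla in charcoal/dextran-stripped serum, with CCF4 ratio read-out and IC50 from Hill fits.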

[4] = target: Tumor necrosis factor (Homo sapiens) (UniProt P01375); assay: qHTS assay to identify small molecules that stimulate Tumor Necrosis Factor-alpha (TNF-alpha) secretion (AID 651757; active = well fitted curve in the direction sought with a large enough effect in the signal ratio; inconclusive = small, poorly fitted or top-dose-only effect, or a change in a side signal; inactive = no such curve, though single readings can be large or run the other way; the % refers to the signal ratio; note: 0% is about no effect); details: Human cells, HTRF 665/615 ratio; activation (TNF-alpha secretion): at 92.2 µM (top of the series)
Method in brief: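 Secreted TNF-alpha from compound-treated THP-1 cells (17 hrs, 37 C) was quantified with a homogeneous time-resolved fluorescence antibody assay.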

[5] = Cell Viability - H-4-II-E (AID 543);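 note: cells exposed to compound for 40 hours; % is set by controls: 0 for no effect and ±100 for the full control effect; nearly all actives have a fitted effect of over 35% in size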
Method in brief: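 Here, cytotoxicity is measured in the rat hepatoma line H-4-II-E as loss of intracellular ATP after 40 hr compound treatment, detected by luciferase luminescence.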

[6] = Cell Viability - LYMP2-004 (AID 966); details: LYMP2-004 lymphoblastoid cell viability, qHTS; activity change, negative = cytotoxicity: at 92.2 µM (top of the series); note: nearly all actives have a fitted effect of over 65% in size; note: potency is the fitted concentration of half-maximal effect;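 for activity change, negative = cytotoxicity: plate controls were DMSO only for no effect and tetraoctylammonium bromide control for full effect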
Method in brief: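 Acute toxicity is scored as a concentration-dependent drop in intracellular ATP, quantified by luciferase luminescence, in human lymphoblastoid cells exposed to compound for 24 hr. AC50 derives from Hill-equation modelling.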

[7] = Cell Viability - LYMP2-025 (AID 976); details: LYMP2-025 lymphoblastoid cell viability; activity change, negative = cytotoxicity: at 92.2 µM (top of the series); note: potency is the fitted concentration of half-maximal effect
Method in brief: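 In qHTS format, LYMP2-025 lymphoblastoid cells in complete culture medium received compound for 24 hr; ATP-based CellTiter-Glo signal gave viability, with AC50 derived by Hill equation.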

[8] = target: Peroxisome proliferator-activated receptor gamma (Homo sapiens) (UniProt P37231); assay: qHTS assay for small molecule antagonists of peroxisome proliferator-activated receptor gamma signaling (AID 588537; active = well fitted inhibition curve with a large enough effect in the signal ratio, with a control signal flat, not every such curve was filed as active; inconclusive = small, poorly fitted or top-dose-only effect, or effect the other way, or a change in a side signal; the % refers to the signal ratio;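 note: reporter cells co-stimulated with 50 nM rosiglitazone agonist during compound treatment; % of control where 0% means no effect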); details: HEK293 PPARg-UAS-bla, beta-lactamase ratio, antagonist mode; activity, negative = inhibition: at 76.8 µM (top of the series) unless noted
Method in brief: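 Inhibitors of agonist-stimulated UAS-bla reporter activity were sought in HEK293 cells; rosiglitazone (50 nM) defined full signal and DMSO baseline. Curves fitted to Hill model gave IC50 and efficacy.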

[9] = target: Retinoic acid receptor RXR-alpha (Homo sapiens) (UniProt P19793); assay: qHTS assay for small molecule agonists of retinoid X receptor alpha signaling (AID 588544; calls by dose curve;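 note: 0% = DMSO basal wells and 100% = reference agonist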); details: HEK293T RXRa-UAS-bla, beta-lactamase reporter, 18 h; activation: at 76.7 µM (top of the series)
[10] = qHTS assay for small molecule agonists of the antioxidant response element (ARE) signaling pathway (AID 651741; active = well fitted activation curve with a large enough effect in the signal ratio; inconclusive = small, poorly fitted or top-dose-only effect, or effect the other way, or a change in a side signal; the % refers to the signal ratio; note: potency is the fitted concentration of half-maximal effect; for activation: % of control where 0% means no effect); details: HepG2 ARE-bla reporter, beta-lactamase FRET ratio, 16 h; activation: at 96 µM (top of the series) unless noted
Method in brief: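 Seeding 2,000 ARE-bla HepG2 cells per well preceded a 5 h incubation at 37 C/5% CO2 and a 16 h compound exposure at 37 C. Beta-lactamase reporter activity was then quantified by fluorescence after 2 h with LiveBLAzer B/G FRET substrate.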

[11] = qHTS assay for small molecule disruptors of the mitochondrial membrane potential - 5 hr assay (AID 651755; calls by dose curve; note: potency is the fitted concentration of half-maximal effect; nearly all actives have a fitted effect of over 40% in size); details: JC-1-type ratio dye; ratio change, negative = disruption: at 92.2 µM (top of the series)
Method in brief: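 HepG2, 2,000 cells/well, overnight attach; cpd or DMSO 5 hr, 37C/5% CO2; Mito-MPS 30 min 37C; fluor 490/535 + 540/590 nm.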

[12] = qHTS assay to identify small molecules that stimulate interleukin-8 (IL-8) secretion (AID 651758; active = well fitted activation curve with a large enough effect in the signal ratio; inconclusive = small, poorly fitted or top-dose-only effect, or effect the other way, or a change in a side signal; the % refers to the signal ratio; note: potency is the fitted concentration of half-maximal effect; for activation: 0% is about no effect); details: HTRF ratio (665/615); activation: at 92.2 µM (top of the series)
Method in brief: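 Secreted IL-8 measured by TR-FRET sandwich (cryptate and XL665 antibodies) from THP-1 cells exposed to compound overnight (16 hrs, 37 C).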

[13] = Cell Viability - SH-SY5Y (AID 544); details: SH-SY5Y neuroblastoma cell viability; at 92.2 µM (top of the series);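 note: cells exposed to compound for 40 hours; 0% = DMSO alone and -100% = 100 µM tamoxifen; nearly all actives have a fitted effect of over 55% in size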
Method in brief: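 Cytotoxicity is scored as a concentration-dependent fall in intracellular ATP in human SH-SY5Y cells treated 40 hr in complete culture medium. Potency is expressed as AC50 from a Hill equation fit.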

[14] = Cell Viability - LYMP2-005 (AID 967); note: potency is the fitted concentration of half-maximal effect
Method in brief: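 Steps: seed 2500 LYMP2-005 cells/well, incubate 5 h at 37 C, add compound, incubate 24 h at 37 C, add CellTiter-Glo, wait 30 min at RT, read luminescence. Concentration-response data fitted to Hill equation for AC50.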

[15] = target: Nuclear receptor ROR-gamma (Homo sapiens) (UniProt P51449); assay: qHTS assay for small molecule antagonists of the retinoid-related orphan receptor gamma (ROR-gamma) signaling pathway (AID 651802);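 note: CHO cells with doxycycline-induced ROR-gamma expression; luciferase reporter luminescence driven by ROR response element; % is set by controls: 0 for no effect and ±100 for the full control effect; nearly all actives have a fitted effect of over 60% in size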
Method in brief: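 Antagonism is scored as a fall in luminescence from a RORE-luciferase reporter in CHO cells expressing ROR under a TET-inducible promoter, measured 16hr after doxycycline induction in the presence of compound.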

[16] = Cell Viability - LYMP1-002 - Assay at 40 hr (AID 994); details: LYMP1-002 lymphoblastoid cell viability; at 92.2 µM (top of the series);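 note: 0% = DMSO only and full inhibition = 92 µM tetraoctylammonium bromide; nearly all actives have a fitted effect of over 60% in size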
Method in brief: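 Viability in the human lymphoblastoid line was measured as intracellular ATP via CellTiter-Glo after 40 hr compound exposure. Tetraoctylammonium bromide served as positive control.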

[17] = Cellular Toxicity (caspase-3) HepG2 (AID 654);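 note: cells exposed to compound for 16 hours before reading; 0% = DMSO alone and 100% = caspase signal from 100 µM tamoxifen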
Method in brief: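 qHTS, HepG2, 1500 cells/well, complete medium; cpd 16 h 37 °C; Caspase-Glo 3/7, 20 min RT; lum. Norm: DMSO vs 100 uM tamoxifen; AC50 Hill fit.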

[18] = MultiTox-Fluor Cytotoxicity Assay - LYMP1-002 - Dead Cells (AID 960); details: LYMP1-002 lymphoblastoid cells, dead-cell protease fluorescence; cytotoxicity (dead cells): at 46.1 µM (top of the series); note: potency is the fitted concentration of half-maximal effect; nearly all actives have a fitted effect of over 60% in size
Method in brief: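 Acute cytotoxicity in a human lymphoblastoid line is scored as rising dead-cell protease signal after 16 hr exposure at 37 C, measured fluorometrically (485/520).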

[19] = Cell Viability - LYMP2-011 (AID 969);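 note: 0% = DMSO only and full inhibition = 92 µM tetraoctylammonium bromide; nearly all actives have a fitted effect of over 60% in size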
Method in brief: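 Acute toxicity is scored as a concentration-dependent drop in intracellular ATP of a human lymphoblastoid line after 24 hr treatment. Values are AC50s modeled with the Hill equation.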

[20] = target: Peroxisome proliferator-activated receptor delta (Homo sapiens) (UniProt Q03181); assay: qHTS assay for small molecule antagonists of peroxisome proliferator-activated receptor delta signaling (AID 588535; active = well fitted inhibition curve with a large enough effect in the signal ratio, with a control signal flat, not every such curve was filed as active; inconclusive = small, poorly fitted or top-dose-only effect, or effect the other way, or a change in a side signal; inactive = no such curve, though single readings can be large or run the other way; the % refers to the signal ratio; note: potency is the fitted concentration of half-maximal effect); details: HEK293T PPARd-UAS-bla, beta-lactamase FRET ratio, 18 h; activity change, negative = inhibition: at 76.7 µM (top of the series) unless noted
Method in brief: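 Cell-based beta-lactamase assay in antagonist mode: 4000 HEK293T PPAR-delta-UAS-bla cells per well, 5 hr preincubation then 18 hr compound incubation at 37 C. IC50 obtained by Hill equation fitting.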

[21] = qHTS assay for small molecule activators of the p53 signaling pathway (AID 651743; active = well fitted activation curve with a large enough effect in the signal ratio, not every such curve was filed as active; inconclusive = small, poorly fitted or top-dose-only effect, or a change in a side signal; the % refers to the signal ratio; note: % of control where 0% means no effect); details: HCT-116 p53RE-bla, beta-lactamase FRET ratio, 16 h; activation: stronger effect = higher value
Method in brief: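 Screen for p53 pathway agonists uses stably transfected p53RE-bla HCT-116 cells, 4,000 per well, treated 16 h at 37 C with compounds in DMSO.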
Tags give direction and shape of the fitted curve or compound fluorescence and quenching.

Sequence of UniProt P19793 (P19793 whole entry, looked up): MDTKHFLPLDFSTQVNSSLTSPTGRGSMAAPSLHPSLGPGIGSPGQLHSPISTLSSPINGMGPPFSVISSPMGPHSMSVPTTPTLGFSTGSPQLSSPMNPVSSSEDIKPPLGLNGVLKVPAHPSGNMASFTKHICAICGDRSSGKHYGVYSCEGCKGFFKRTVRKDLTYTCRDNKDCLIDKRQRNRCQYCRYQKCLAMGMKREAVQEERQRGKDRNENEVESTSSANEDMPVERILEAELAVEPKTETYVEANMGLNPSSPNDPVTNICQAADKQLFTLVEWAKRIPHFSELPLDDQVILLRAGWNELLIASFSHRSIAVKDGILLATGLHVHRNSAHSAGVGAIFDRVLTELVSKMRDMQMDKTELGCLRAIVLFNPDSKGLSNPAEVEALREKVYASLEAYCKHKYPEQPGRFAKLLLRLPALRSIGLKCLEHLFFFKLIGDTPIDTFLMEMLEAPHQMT
Sequence of UniProt P10828 (P10828 whole entry, looked up): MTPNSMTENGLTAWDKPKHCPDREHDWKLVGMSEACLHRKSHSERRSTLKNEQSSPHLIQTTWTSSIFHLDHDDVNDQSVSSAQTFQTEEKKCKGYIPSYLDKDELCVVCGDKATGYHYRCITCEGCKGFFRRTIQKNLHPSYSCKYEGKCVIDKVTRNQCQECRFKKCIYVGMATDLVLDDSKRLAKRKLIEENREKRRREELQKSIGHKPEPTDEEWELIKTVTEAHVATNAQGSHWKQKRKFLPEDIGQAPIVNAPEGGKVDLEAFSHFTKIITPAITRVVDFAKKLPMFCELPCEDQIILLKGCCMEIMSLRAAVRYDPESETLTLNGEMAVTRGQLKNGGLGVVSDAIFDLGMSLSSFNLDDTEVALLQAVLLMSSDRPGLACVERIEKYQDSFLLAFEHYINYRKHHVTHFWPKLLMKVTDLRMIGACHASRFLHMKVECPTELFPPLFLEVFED
Sequence of UniProt P01375 (P01375 whole entry, looked up): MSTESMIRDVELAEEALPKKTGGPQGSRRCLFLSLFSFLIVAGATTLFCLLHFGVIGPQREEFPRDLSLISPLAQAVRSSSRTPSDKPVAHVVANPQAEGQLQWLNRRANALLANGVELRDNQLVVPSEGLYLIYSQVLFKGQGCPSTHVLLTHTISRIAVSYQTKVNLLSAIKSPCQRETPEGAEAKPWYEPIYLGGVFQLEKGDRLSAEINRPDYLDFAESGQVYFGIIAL
Sequence of UniProt P11473 (P11473 whole entry, looked up): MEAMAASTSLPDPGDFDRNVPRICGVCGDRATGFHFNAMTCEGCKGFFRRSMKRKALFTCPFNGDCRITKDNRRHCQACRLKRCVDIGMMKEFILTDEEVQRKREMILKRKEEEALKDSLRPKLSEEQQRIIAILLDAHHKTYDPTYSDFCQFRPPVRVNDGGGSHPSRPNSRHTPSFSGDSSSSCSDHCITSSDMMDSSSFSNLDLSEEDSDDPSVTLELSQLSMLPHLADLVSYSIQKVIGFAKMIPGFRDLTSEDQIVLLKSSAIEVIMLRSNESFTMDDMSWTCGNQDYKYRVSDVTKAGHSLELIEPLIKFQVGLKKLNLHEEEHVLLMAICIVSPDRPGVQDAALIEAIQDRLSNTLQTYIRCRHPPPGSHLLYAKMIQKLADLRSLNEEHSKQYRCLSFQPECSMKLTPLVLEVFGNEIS
Sequence of UniProt Q03181 (Q03181 whole entry, looked up): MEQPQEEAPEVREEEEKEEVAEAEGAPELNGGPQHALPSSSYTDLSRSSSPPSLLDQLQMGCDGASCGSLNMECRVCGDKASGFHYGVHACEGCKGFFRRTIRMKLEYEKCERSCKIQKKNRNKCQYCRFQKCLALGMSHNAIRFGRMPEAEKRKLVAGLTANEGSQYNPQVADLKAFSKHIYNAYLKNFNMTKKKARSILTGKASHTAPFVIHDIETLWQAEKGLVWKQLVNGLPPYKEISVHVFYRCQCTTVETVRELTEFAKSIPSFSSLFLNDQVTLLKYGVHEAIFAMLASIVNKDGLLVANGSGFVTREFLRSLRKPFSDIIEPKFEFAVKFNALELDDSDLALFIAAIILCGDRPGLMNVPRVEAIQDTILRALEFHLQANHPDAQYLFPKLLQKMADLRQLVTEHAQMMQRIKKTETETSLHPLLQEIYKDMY
Sequence of UniProt P51449 (P51449 whole entry, looked up): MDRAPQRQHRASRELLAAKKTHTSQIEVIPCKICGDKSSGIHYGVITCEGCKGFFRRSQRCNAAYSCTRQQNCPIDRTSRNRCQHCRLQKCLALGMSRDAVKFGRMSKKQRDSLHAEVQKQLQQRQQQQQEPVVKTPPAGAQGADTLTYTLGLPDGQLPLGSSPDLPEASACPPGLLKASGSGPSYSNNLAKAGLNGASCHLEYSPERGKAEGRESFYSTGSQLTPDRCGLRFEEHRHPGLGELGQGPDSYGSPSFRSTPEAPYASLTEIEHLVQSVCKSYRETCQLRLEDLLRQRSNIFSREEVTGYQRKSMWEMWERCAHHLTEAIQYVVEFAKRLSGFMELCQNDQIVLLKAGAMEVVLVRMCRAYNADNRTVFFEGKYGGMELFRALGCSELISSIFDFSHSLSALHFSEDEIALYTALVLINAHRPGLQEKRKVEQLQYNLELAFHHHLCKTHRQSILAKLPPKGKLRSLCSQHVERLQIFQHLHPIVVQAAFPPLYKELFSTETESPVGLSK

Question: For Cc1c(N)cccc1N, which activity change, negative = cytotoxicity [1] is on record?
Answer: Its activity change, negative = cytotoxicity is inactive: 0.596%.

Question: What about the Potency [2] of the same molecule?
Answer: Its Potency is “inactive”.

Question: What about the activity change % (negative = inhibition) [3] of the same molecule?
Answer: Its activity change % (negative = inhibition) is inactive: -2.96%.

Question: And the activation (TNF-alpha secretion) [4]?
Answer: Its activation (TNF-alpha secretion) is inconclusive: -0.0365%.

Question: With Nc1cccc(N)c1 as the molecule, how does the Potency [5] read?
Answer: Its Potency is “inactive”.

Question: What about the Potency [6] of the same molecule?
Answer: The Potency was “inactive”.

Question: And the Potency [7]?
Answer: Its Potency is inconclusive: 0.0003 µM [cytotoxic].

Question: And the Potency [8]?
Answer: The Potency was “inactive”.

Question: And the Potency [9]?
Answer: Its Potency is “inactive”.

Question: What about the Potency [10] of the same molecule?
Answer: Its Potency is inconclusive: 47.3 µM [activator, partial curve].

Question: What about the Potency [11] of the same molecule?
Answer: The Potency was inconclusive: 47.3 µM [inhibitor, partial curve, poor fit].

Question: And the activation [12]?
Answer: Its activation is inconclusive: 0.891%.

Question: For Cc1ccc(Cl)cc1N, which viability change, negative = cytotoxic [13] is on record?
Answer: The viability change, negative = cytotoxic was inconclusive: -40%.

Question: What about the Potency [6] of the same molecule?
Answer: The Potency was inconclusive: 39.8 µM [cytotoxic, partial curve, poor fit].

Question: What about the Potency [14] of the same molecule?
Answer: Its Potency is inconclusive: 31.6 µM [cytotoxic, single point].

Question: And the Potency [9]?
Answer: Its Potency is “inactive”.

Question: What about the Potency [10] of the same molecule?
Answer: Its Potency is inconclusive: 75 µM [activator, partial curve, poor fit].

Question: And the activation [12]?
Answer: Its activation is inconclusive: 12.5%.

Question: And the Potency [15]?
Answer: Its Potency is “inactive”.

Question: Which viability change, negative = cytotoxic [13] does the source give for O=[N+]([O-])c1cccc(Cl)c1Cl here?
Answer: Its viability change, negative = cytotoxic is inactive: -7.2%.

Question: And the viability change, negative = cytotoxic [16]?
Answer: The viability change, negative = cytotoxic was inactive: 4.35%.

Question: And the activity, negative = inhibition [8]?
Answer: Its activity, negative = inhibition is inconclusive: -1.89%.

Question: And the activation [10]?
Answer: Its activation is inconclusive: -2.05%.

Question: And the Potency [12]?
Answer: Its Potency is “inactive”.

Question: For O=C(O)c1ccccc1[N+](=O)[O-], which viability change, negative = cytotoxic [13] is on record?
Answer: The viability change, negative = cytotoxic was inactive: -0.624%.

Question: And the Potency [17]?
Answer: The Potency was “inactive”.

Question: And the Potency [18]?
Answer: The Potency was inconclusive: 0.005 µM [cytotoxic, full curve, poor fit].

Question: What about the Potency [19] of the same molecule?
Answer: The Potency was “inactive”.

Question: And the Potency [20]?
Answer: Its Potency is inconclusive: 1.58 µM [inhibitor, full curve, poor fit].

Question: What about the activation [10] of the same molecule?
Answer: The activation was inconclusive: 9.98%.

Question: What about the activation [21] of the same molecule?
Answer: Its activation is inactive: 2%.

Question: And the Potency [12]?
Answer: Its Potency is inconclusive: 47.3 µM [activator, partial curve].
